From the supplement of paper PMC11417369
± gives the standard deviation of the averaged measurements. The list shows a part of the results.

These sequences were tested on PfAP2-G AP2 domain (GST-tagged) (assay: gcPBM binding intensity (ln(normalized median fluorescence intensity)); higher = stronger DNA binding).
Outline: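 After 1 h on an Agilent 4 × 180k array of primer-extended double-stranded 36-bp intergenic genomic probes and negative controls, bound GST-tagged P. falciparum DNA-binding domains were detected with Alexa488 anti-GST antibody and scanned at 488 nm. The domains had been expressed in E. coli, and binding took place in 1× PBS with 1% milk, 0.2 mg/ml BSA, 0.5% salmon testes DNA and 0.03% Triton X-100. Binding intensity is the highest Masliner-normalised natural-log median intensity across replicate spots of either probe orientation.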

Sequence	gcPBM binding intensity (ln)
AATAATAATGCTTTAACTTTGTTGTTATTTAGAATA [CACACA_negctrl_site1144]	9.525 ± 0.049
CATACATATATACATACACACACATATAACCAATGT [CACACA_site8679]	10.2 ± 0.11
TTTGTATTACGTTTGTGTACATATACAATGTGTTTT [XGTACX_site7708]	11.3 ± 0.76
TCCATGCATTGACACACACACAAAAAAAAATTCTTT [CACACA_site7847]	10.2 ± 0.24
TTTATTTATTTATGGACACACATACAAATCTTCCAG [CACACA_site4676]	11 ± 0.59
TATATAATTATTTTTTGTACTCATAATAATATGAAA [XGTACX_site289]	11.4 ± 1
AATAATAATAAAAAGGTGCTGAAATATTTTTATTAT [GTGCAC_site9763]	9.935 ± 0.035
GCTTAATACAGAATAACACACAAAATAAATAAATAA [CACACA_site4041]	10 ± 0.12
TTTTTTTTTTTTTTTGCACACTTAAATTTGGTGGCT [CACACA_site5319]	9.89 ± 0.4
GACATATATACCAAACGTACATATGTGCAAGCATAA [XGTACX_site3089]	11.1 ± 0.8
TTGGCTATAGCCAATTGTACTTTTTCTCTTTGGCTT [XGTACX_site1119]	11.4 ± 1
TCTTGATTAACTTAAAAAAAAAAAAAAAAAAAAAAA [CACACA_negctrl_site458]	9.48 ± 0.35
CATATAATAAATAATTGTACTTGATATAATATTATG [XGTACX_site3562]	11 ± 0.55
TATATTTGTGCGTGTACACATTTGAAAAAATATATA [CACACA_site5079]	11.6 ± 0.88
AAAAAAAAAAAAAATATATATATATATATATATATA [CACACA_negctrl_site540]	10.1 ± 1
TTTTTTTTTTTTTTTTGTACATAAATTTTTATTAGA [XGTACX_site6409]	10.9 ± 0.99
ATATGTACAAAATAAGCACACACAAAAAAAAAAAAA [CACACA_site8984]	10.8 ± 0.75
ATTATATAAACCAAATGTACAAAAAGGTCGTAGTGG [XGTACX_site1298]	11.16 ± 0.11
CAACATTGTTCCTATTGTACATGAACTGTTCATACG [XGTACX_site4070]	10.9 ± 0.52

Sequence	gcPBM binding intensity (ln)
TATGAGAAAAAAAGTACATGCACAAAATGTATATGT [TGCATGCA_site789]	11.5 ± 1.1
AGACACGTATACGATGCACACGTATGCTTTATATAT [CACACA_site9363]	10.18 ± 0.049
ATTATTAAGGTTTATTCAAAAAAGACGTTTTTAAAT [CACACA_negctrl_site1059]	9.795 ± 0.078
TACCTAATATGTTATACACACATTATGAGTACATAT [CACACA_site2466]	11.4 ± 1.1
GAATAATATATATGTTCACACATGGTCTTTATTATA [CACACA_site5457]	10.3 ± 0.28
GTTATATAAACATATGCATGTGAAGTGTTTATTAAT [TGCATGCA_site183]	9.8 ± 0.2
TTTTTTTTTCCTTTTTTTTAAATATTAAAAATGGGA [TGCATGCA_negctrl_site494]	9.91 ± 0.22
TATATATATATAATTGCACACATCAAGTTTGATGTT [CACACA_site1288]	9.95 ± 0.27
GTTGTATACAATAATGTGCACATATTAATTTGAACT	10.5 ± 0.3
AAATGTACAGGACGCACACACATATTTATATTTATA [CACACA_site7689]	11.1 ± 0.91
TCATTGAAAAAAATCTGTACTGACTATATAGTTGCA [XGTACX_site1566]	10.9 ± 0.58
CTTATTTACTATTTTTCACACATTACAGATAAACAA [CACACA_site6095]	10.06 ± 0.064
TAAGTTTTGTTTTTTTGTACTCATTCATACTATCAT [XGTACX_site3638]	11.3 ± 0.68
TAAATATATATATATAGTACAATATAATTATGATAT [XGTACX_site258]	10.9 ± 0.66
AATATAATATTATATAGTACATATTTCTTTTATTTT [XGTACX_site22]	10.8 ± 0.67
TTTTCTTAATATTTCGTTTTACATAAACCTTTTAAA [CACACA_negctrl_site660]	9.97 ± 0.12
TATATATATATAAGTAGTACAATAATATATTATTTT [XGTACX_site6450]	11.5 ± 1
TTTTACATCATATATAGTACATATATTATACATATA [XGTACX_site8590]	10.9 ± 0.62
AAAATAAATAAAAAAAGTACATATATAATTTATAAA [XGTACX_site2411]	11.5 ± 0.88

Sequence	gcPBM binding intensity (ln)
ATATATTTTCATTTTACACACAAATAAAGATAATTT [CACACA_site2996]	10.2 ± 0.45
GAACACTAATAATGTTGTACACGTAATTATATATTT [XGTACX_site777]	11.5 ± 0.92
AAACACACACACAAATGTACATATATATATATATTT [XGTACX_site5090]	10.9 ± 0.68
TCTTGATACAAACATTTAAATAAATAAATAAAAAAA [GTGCAC_negctrl_site41]	9.82 ± 0.11
AAAATACACGCATACACACACACACCGACACATATA [CACACA_site4523]	10.3 ± 0.27
TGTTGTGATATATTAAAATCGTCCCTTATAATTTTA [GTGCAC_negctrl_site595]	10.1 ± 0.17
TAATATTATATTTATAGTACATATAATATATATATA [XGTACX_site2964]	10.8 ± 0.67
TGTTATATAATTTAGCGTACAGGTTATAGGACGGAT [XGTACX_site8823]	11.5 ± 0.95
AACTATTACTTTCTTTCACACATTTTTTTTTTTTTT [CACACA_site5355]	9.935 ± 0.007
ATATATATATATAGTGCACACTTAAGAATATAAAGA [CACACA_site4771]	10.4 ± 0.28
ATATAATGAATTATTAGAAAATAAAATGAATAAAGT [CACACA_negctrl_site690]	10.055 ± 0.007
AACTCTTAGAATGACGGTACAGTATAATAGGTGAAC [XGTACX_site7163]	10.6 ± 0.35
ATCATATAAACATATTGTACTTAAATACATAATATT [XGTACX_site3800]	11.2 ± 0.64
CAAACCCACGGACACACACACACAAAAATGATTAAA [CACACA_site5365]	11 ± 0.75
TTTATTTATTTATGTGGTACTTCAAAAATATATACT [XGTACX_site355]	11.3 ± 0.59
GGATACGCTTTTGTACCACTCCCCCTTTTGGGAATA [CACACA_negctrl_site1363]	11.4 ± 0.97
TTTTTGTAATATTATGATGTCATATATATATATATA [XGTACX_negctrl_site618]	10.1 ± 0.33
ATATTTTGTAACTATACACACATATATATATTATAA [CACACA_site3062]	10 ± 0.15
